PubChem BioAssay (NCATS)
“And” between values parts separate entries of the source, which are not always exact repeats. Identical values can stand only once. The shares of active, inactive and inconclusive entries below differ from those in the screen. For part of these data: Where the call is inconclusive, the potency comes from a doubtful curve fit. The source made the active and inactive calls. The call rests on the fitted dose curve; in most records, active means well fitted curve in the direction sought with a large enough effect; inconclusive means small, poorly fitted or top-dose-only effect, or another doubt; inactive means no such curve, though single readings can be large; an effect the other way counts as inactive or inconclusive.

How the values were obtained:
KB-3-1 = experiment: Cytotoxic Profiling of Annotated Libraries Using Quantitative High-Throughput Screening (AID 1296008); conditions: Five cell lines viability, CellTiter-Glo ATP luminescence, 48-72 h; max response: hits give low values; further: nearly all actives have a fitted effect of over 60% in size; further: potency means the concentration at half of the fitted maximal effect; on max response: on the % scale 0 is the no-effect control and ±100 the full control effect
In short: (§1)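 Cells exposed to compounds for 48 or 72 hr at 37 degrees Celsius. Viability read as ATP-coupled luminescence with CellTiter-Glo after 10 min at room temperature.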

NIH3T3 = experiment: as above; conditions: Five cell lines viability, CellTiter-Glo ATP luminescence, 48-72 h; max response: hits give low values
In short: as §1

astro = experiment: Drug repurposing screens with cells derived from glioblastoma tumor samples (AID 1345199); conditions: viability, ATP luminescence, 48 h; activity, negative = cell killing: at 45.9 µM (top of the series) unless noted; further: potency means the concentration at half of the fitted maximal effect; nearly all actives have a fitted effect of over 40% in size
In short: (§2)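 Four patient lines of CD133+ GBM neurospheres were screened at several concentrations; hits were retested in those lines plus three slower-growing GBM lines, using 48-hour treatment and ATP-based viability.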

[1] = as above; conditions: GBM patient neurospheres viability, ATP luminescence, 48 h; Potency: tumour line A unless noted; series mostly up to 46 µM
In short: as §2

3D7 = experiment: qHTS profiling for inhibitors of Plasmodium falciparum proliferation (AID 504749);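 further: 0% = DMSO vehicle and full inhibition = artemisinin control; nearly all actives have a fitted effect of over 60% in size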; conditions: P. falciparum in erythrocytes, SYBR Green DNA, 72 h; series mostly up to 28.7 µM
In short: (§3)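 Readout was DNA-dye fluorescence from lysed cultures, ex 485/em 535 nm. Parasitized red cells had grown 72 h with compound; data scaled between 0.29 uM artemisinin and DMSO wells and corrected using vehicle-only plates.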

7G8 = experiment: as above; conditions: P. falciparum in erythrocytes, SYBR Green DNA, 72 h; series mostly up to 28.7 µM
In short: as §3

[2] = qHTS assay to identify inhibitors of the type 1 interferon - major histocompatibility complex class I in skeletal muscle: Counter screen cell viability and HiBit confirmation (AID 1347412); conditions: iHSKM muscle cells + IFN-b, HiBiT or CellTiter-Glo, 24 h; for Potency: HiBiT; further: potency means the concentration at half of the fitted maximal effect; on activity change, negative = inhibition: on the % scale 0 is the no-effect control and ±100 the full control effect; on all read-outs here: nearly all actives have a fitted effect of over 60% in size
In short: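 HLA-B*08:01–HiBiT knock-in immortalized human myoblasts (C25cl48) stimulated with 4.0 ng/ml human IFN-beta and dosed with compound in a 12-point 1:3 titration (top final 46 uM). After 24 hrs at 37 C, HiBiT lytic luminescence or CellTiter Glo ATP read out.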
Tags describe the fitted curve by direction and shape.

Compound: C=C1C[C@H]2[C@H]3CCC(=O)[C@@]3(C)CC[C@@H]2[C@@]2(C)C=CC(=O)C=C12
- max response (KB-3-1): inactive: 8.58%

Compound: Cc1ccc(-n2nccn2)c(C(=O)N2CCN(c3nc4cc(Cl)ccc4o3)CCC2C)c1 (stereo not given)
- Potency (KB-3-1): inconclusive: 18.4 µM [inhibitor, single point]

Compound: CC1=CC(=O)[C@@H](O)[C@]2(C)C3[C@@H](O)[C@@H]4OC(=O)[C@@H]([C@H]4C)[C@]3(C)C(=O)[C@H](O)[C@@H]12 (stereo not given in full)
- Potency (KB-3-1): inconclusive: 12.8 µM [inhibitor, single point]
- Potency (NIH3T3): active: 2.55 µM

Compound: CO[C@@H]1[C@H](O)[C@@H](O[C@@H]2C[C@H]3CC[C@@H]4C(CC[C@]5(C)[C@@H](C6=CC(=O)OC6)CC[C@]45O)[C@@]3(C)[C@H](O)C2)O[C@H](C)[C@@H]1O[C@@H]1O[C@H](CO)[C@@H](O)[C@H](O)[C@H]1O (stereo not given in full)
- Potency (KB-3-1): active: 0.432 µM

Compound: CN1CCCCC1Cn1cc(C(=O)c2cc([N+](=O)[O-])ccc2I)c2ccccc21 (stereo not given)
- max response (KB-3-1): inactive: 6.42%

Compound: C[C@]12CC[C@H](O[C@@H]3O[C@H](CO)[C@@H](O)[C@H](O)[C@H]3O[C@@H]3O[C@H](CO)[C@@H](O)[C@H](O)[C@H]3O)CC1=CC[C@@H]1[C@@H]2CC[C@]2(C)[C@@H](C3=CC(=O)OC3)CC[C@]12O
- Potency (KB-3-1): inconclusive: 8.62 µM [inhibitor, single point]

Compound: CN1CC[C@]23c4c5ccc(O)c4O[C@H]2[C@@H](O)CC[C@H]3[C@H]1C5
- max response (KB-3-1): inactive: -2.83%

Compound: CC1=C2C(=O)C3[C@@H](CC=C4C[C@@H](O)CC[C@@]43C)[C@@H]2CC[C@]12O[C@@H]1C[C@H](C)CN[C@H]1[C@H]2C (stereo not given in full)
- outcome (KB-3-1): inactive

Compound: Cc1ccccc1CN1CCC(N2CCC(n3c(=O)[nH]c4ccccc43)CC2)CC1
- Potency (KB-3-1): inconclusive: 7.31 µM [inhibitor, partial curve]

Compound: CCCCCc1cc(O)c2c(c1)OC(C)(C)c1ccc(C)cc1-2
- Potency (KB-3-1): inconclusive: 14.6 µM [inhibitor, partial curve]

Compound: O=C1C=CC[C@@H]2[C@H]3CCCN4CCC[C@@H](CN12)[C@@H]34
- Potency (KB-3-1): inconclusive: 16.6 µM [inhibitor, partial curve]
- Potency (NIH3T3): inconclusive: 18.7 µM [inhibitor, single point]

Compound: COc1cc(O)c2c(c1)CCC[C@@H](O)[C@H](O)C(=O)/C=C\C[C@H](C)OC2=O
- Potency (KB-3-1): inconclusive: 20.2 µM [inhibitor, single point]
- Potency (NIH3T3): inconclusive: 0.904 µM [inhibitor, full curve]

Compound: C[C@@H]1C[C@@H](O)[C@]2(O)O[C@@H]3C[C@@]4(C=O)C(CC[C@@H]5C4CC[C@]4(C)[C@@](O)(C6=CC(=O)OC6)CC[C@]54O)C[C@H]3OC2O1 (stereo not given in full)
- Potency (KB-3-1): active: 2.24 µM

Compound: OC(CNc1ccccc1)Cn1c2ccc(Br)cc2c2cc(Br)ccc21 (stereo not given)
- max response (KB-3-1): inactive: -15.3%

Compound: C=C1[C@@H](O)[C@]2(O)OC[C@]34C2[C@]2(C)C(C[C@H]3OC(=O)[C@H](O)[C@@]14O)C(C)=CC(=O)[C@H]2O (stereo not given in full)
- Potency (KB-3-1): inconclusive: 14.2 µM [inhibitor, single point]

Compound: CC(=O)OC[C@]12C[C@H](O)C(C)=C[C@H]1O[C@@H]1[C@H](O)[C@@H](O)[C@@]2(C)[C@]12CO2
- Potency (KB-3-1): active: 2.27 µM

Compound: CO[C@H]1[C@@H](O)[C@@H](C)O[C@@H](O[C@@H]2C=C3C(OC(C)=O)CC4(O)C(CC[C@]5(C)[C@@H](C6=CC(=O)OC6)CC[C@]45O)[C@@]3(C)CC2)[C@@H]1O (stereo not given in full)
- Potency (KB-3-1): active: 0.385 µM

Compound: [N-]=[N+]=CC(=O)OC[C@H](N)C(=O)O
- max response (KB-3-1): inactive: -24.6%

Compound: C[C@H]1C/C=C/[C@H]2[C@@H]3O[C@]3(C)[C@@H](C)[C@H]3[C@H](Cc4ccccc4)NC(=O)[C@]32OC(=O)O/C=C/[C@@](C)(O)C1=O
- Potency (KB-3-1): active: 0.563 µM
- Potency (NIH3T3): inconclusive: 0.126 µM [inhibitor, full curve]

Compound: Cc1sc2c(c1C)C(c1ccc(Cl)cc1)=NC(CC(=O)Nc1ccc(O)cc1)c1nnc(C)n1-2 (stereo not given)
- Potency (KB-3-1): inconclusive: 1.84 µM [inhibitor, full curve]

Compound: C[C@@H]1CC[C@H]2[C@@H](C)C(=O)O[C@@H]3O[C@@]4(C)CC[C@@H]1[C@]32OO4
- max response (KB-3-1): inactive: -14.6%

Compound: C[C@@H](CN1CCC(n2c(=O)[nH]c3cc(Br)ccc32)CC1)NC(=O)[C@@H]1C[C@H]1c1ccccc1
- Potency (KB-3-1): inconclusive: 18.4 µM [inhibitor, single point]
- Potency (NIH3T3): inconclusive: 29.1 µM [inhibitor, single point]

Compound: C[C@H]1O[C@@H](n2cnc3c(N)ncnc32)C[C@@H]1O
- outcome (KB-3-1): inactive

Compound: N=c1c2c(-c3ccccc3)c(-c3ccccc3)n(Cc3ccccc3)c2ncn1C1CCC(O)CC1 (stereo not given)
- Potency (KB-3-1): inconclusive: 0.662 µM [inhibitor, full curve, poor fit]

Compound: C#CC1(O)CCC2C3CCC4=CC(=O)CCC4=C3C=CC21C (stereo not given)
- Potency (KB-3-1): active: 6.51 µM
- Potency (NIH3T3): inconclusive: 20.6 µM [inhibitor, single point]

Compound: CCCOC(=O)Cc1ccc(OCC(=O)N(CC)CC)c(OC)c1
- max response (KB-3-1): inactive: -8.87%

Compound: C/C=C(\C)C(O)C(C)/C=C(C)/C=C/C/C(C)=C/Cc1nc(OC)c(OC)c(O[C@@H]2O[C@@H](C)[C@H](O)[C@@H](O)[C@H]2O)c1C (stereo not given in full)
- Potency (KB-3-1): inconclusive: 3.17 µM [inhibitor, partial curve]
- Potency (NIH3T3): inconclusive: 10 µM [inhibitor, single point]

Compound: Oc1ccc2c3c1O[C@H]1c4[nH]c5c(c4C[C@@]4(O)[C@@H](C2)N(CC2CC2)CC[C@]314)C[C@@]1(O)[C@H]2Cc3ccc(O)c4c3[C@@]1(CCN2CC1CC1)[C@H]5O4
- outcome (KB-3-1): inactive

Compound: CCCCN1[C@@H]2CC[C@H]1CC(OC(c1ccc(F)cc1)c1ccc(F)cc1)C2 (stereo not given in full)
- Potency (KB-3-1): inconclusive: 20.6 µM [inhibitor, single point]
- Potency (NIH3T3): inconclusive: 29.1 µM [inhibitor, single point]

Compound: COc1ccc2c(c1OC)CN1CCc3cc4c(cc3C1C2)OCO4 (stereo not given)
- max response (KB-3-1): inactive: -7.53% and inactive: -10%
- Potency (NIH3T3): inconclusive: 13.2 µM [inhibitor, partial curve]
- Potency (astro): inconclusive: 14.1 µM [inhibitor, single point]

Compound: CCCCCCCCC(=O)NCc1ccc(O)c(OC)c1
- max response (KB-3-1): inactive: -3.93%
- Potency [1]: active: 12.6 µM

Compound: COc1ccc(C(c2ccc(OC)cc2)C(Cl)(Cl)Cl)cc1
- Potency (KB-3-1): inconclusive: 63.1 µM [inhibitor, single point]
- Potency (NIH3T3): inconclusive: 38.2 µM [inhibitor, single point]
- Potency (astro): inconclusive: 28.2 µM [inhibitor, partial curve]

Compound: CC1=C[C@H]2O[C@@H]3C[C@H]4OC(=O)/C=C/C=C/C(=O)OCC/C(C)=C/C(=O)OC[C@@]2(CC1)[C@]4(C)[C@]31CO1
- Potency (KB-3-1): active: 0.02 µM
- Potency (NIH3T3): active: 0.0282 µM

Compound: NC(=O)OCCCc1ccccc1
- max response (KB-3-1): inactive: -19.1%
- outcome (NIH3T3): inactive
- Potency [1]: inconclusive: 35.5 µM [inhibitor, partial curve, poor fit]
- Potency (3D7): inactive
- Potency (7G8): inactive

Compound: CCCCCn1cc(C(=O)Cc2ccccc2OC)c2ccccc21
- Potency (KB-3-1): inconclusive: 29.1 µM [inhibitor, single point]
- max response (NIH3T3): inactive: -7.87%

Compound: C=C1CC[C@@]2(O)[C@H]3Cc4ccc(O)c5c4[C@@]2(CCN3CC2CC2)[C@H]1O5
- max response (KB-3-1): inactive: 3.52%
- Potency [1]: inconclusive: 11.2 µM [inhibitor, partial curve]

Compound: CCc1nn(C)c(C(=O)NCc2ccc(Oc3ccc(C)cc3)cc2)c1Cl
- Potency (KB-3-1): inconclusive: 0.259 µM [inhibitor, partial curve, poor fit]
- Potency (NIH3T3): inconclusive: 18.4 µM [inhibitor, partial curve]

Compound: CC1(N2CCC(n3c([C@@H]4CCCNC4)nc4ccccc43)CC2)CCCCCCC1
- Potency (KB-3-1): inconclusive: 37.2 µM [inhibitor, single point] and inconclusive: 29.1 µM [inhibitor, single point]
- Potency (NIH3T3): inconclusive: 33.2 µM [inhibitor, single point] and inconclusive: 25.9 µM [inhibitor, single point]

Compound: CCC1=CC2CN3CCc4c([nH]c5ccccc45)[C@@](C(=O)OC)(C2)[C@@H]13
- Potency (KB-3-1): inconclusive: 20.2 µM [inhibitor, single point]
- Potency (NIH3T3): inconclusive: 12.8 µM [inhibitor, single point]

Compound: COP(=S)(OC)Oc1ccc(S(N)(=O)=O)cc1
- max response (KB-3-1): inactive: 0.165%
- Potency [1]: inconclusive: 10 µM [inhibitor, partial curve]

Compound: Cc1sc2c(c1C)C(c1ccc(Cl)cc1)=N[C@@H](CC(=O)Nc1ccc(O)cc1)c1nnc(C)n1-2
- Potency (KB-3-1): inconclusive: 1.23 µM [inhibitor, full curve, poor fit]
- Potency (NIH3T3): inconclusive: 0.551 µM [inhibitor, full curve]
- Potency [2]: inconclusive: 0.883 µM [inhibitor, full curve]
- activity change, negative = inhibition ([2]; Viability, at 45.9 µM (top of the series)): inactive: 6.64%

Compound: CCNC(=O)CC1N=C(c2ccc(Cl)cc2)c2cc(OC)ccc2-n2c(C)nnc21 (stereo not given)
- Potency (KB-3-1): inconclusive: 8.2 µM [inhibitor, partial curve]
- Potency (NIH3T3): inconclusive: 6.51 µM [inhibitor, partial curve]

Compound: CC(C)[C@]12O[C@H]1[C@@H]1O[C@]13[C@]1(O[C@H]1C[C@H]1C4=C(CC[C@@]13C)C(=O)OC4)[C@@H]2O
- Potency (KB-3-1): active: 0.0651 µM
- Potency (NIH3T3): active: 0.092 µM
- Potency [2]: active: 0.0625 µM

Compound: CO[C@H]1CCC(O[C@H]2C[C@H]([C@]3(C)CC[C@]4(C[C@H](O)[C@@H](C)[C@@H]([C@@H](C)C=C(C)C(=O)[C@H](C)C[C@H](C)C(=O)O)O4)O3)O[C@]3(O[C@@H]([C@H]4O[C@@](O)(CO)[C@H](C)C[C@H]4C)C[C@H]3C)[C@H]2C)O[C@H]1C (stereo not given in full)
- Potency (KB-3-1): inconclusive: 13.2 µM [inhibitor, partial curve]
- Potency (NIH3T3): inconclusive: 2.09 µM [inhibitor, full curve]
